The results in this text go back to the supplement of paper PMC11417369.

± gives the standard deviation of the averaged measurements. Some of the results follow.

In this test the test system is PfAP2-G AP2 domain (GST-tagged). As to the kind of experiment: gcPBM binding intensity (ln(normalized median fluorescence intensity)); higher = stronger DNA binding. Summed up:
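An Agilent 4 × 180k array carrying primer-extended double-stranded 36-bp intergenic genomic probes and negative controls received GST-tagged P. falciparum DNA-binding domains expressed in E. coli, about 25 μg on average, for 1 h. The binding buffer contained 1× PBS, 1% milk, 0.2 mg/ml BSA, 0.5% salmon testes DNA and 0.03% Triton X-100. Binding intensity is the top Masliner-normalised natural-log median intensity across replicate spots of either probe orientation, read after Alexa488 anti-GST antibody staining and a 488 nm scan.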
For the sequence “TAATTTATAACACGCGCACACATATATATATAGTAA [CACACA_site121]”, the “gcPBM binding intensity (ln)” value amounted to 10.5 ± 0.33. For the sequence “AAAGACGTTTATAAATGTACATACACTTTAAAAGTT [XGTACX_site8753]”, the “gcPBM binding intensity (ln)” value came to 11 ± 0.43. For “CCCCATTTATCTTAAGCATGCCATGGTTTTAGATAT [TGCATGCA_site24]”, the “gcPBM binding intensity (ln)” value is 10.6 ± 0.42. In the case of “AAAAAATATAAAAAAACACACAAAAAAAAAAAAAAA [CACACA_site1382]” it was 9.62 ± 0.32; in that of “TTCTTAAAAAATCAAACACACATATATAAATACATA [CACACA_site5301]”, 10 ± 0.18. Take “ATAAAAAAAAAAAATACACACATATATATATATATA [CACACA_site1709]”: the “gcPBM binding intensity (ln)” value turned out to be 9.96 ± 0.47. Consider “GTATATATCTCAGAGCATAATAGTATAATTCGGTCA [CACACA_negctrl_site876]”, for which the “gcPBM binding intensity (ln)” value is 9.98 ± 0.18. For the sequence “AATTATTTTAGAAACACACAAATTAGAAAAAACATA [CACACA_site7673]”, the “gcPBM binding intensity (ln)” value was 10.2 ± 0.24. Turning to “ATTAAAACAAAATGTACACACATATAATTTAATGAC [CACACA_site878]”, the “gcPBM binding intensity (ln)” value is 11.2 ± 0.81. Turning to “TTTATCTTTTTTTGTTGTACAGATGTTTATATTTTA [XGTACX_site4065]”, the “gcPBM binding intensity (ln)” value came to 11.2 ± 0.68. With “AATATATATATAAATAGTACATATAAAGAGAATTTT [XGTACX_site3168]”, the “gcPBM binding intensity (ln)” value came out at 11.1 ± 0.52. Then “CAGAAATATTCTTATACACACTGTTCTTATATTCCT [CACACA_site4318]”, with 10.15 ± 0.049; and “TGATATTTCATCATAGTGCAATATGGCATATAAATA [GTGCAC_site9433]”, with 9.92 ± 0.14. Take “TGTAATAAACTACTTTTTTTTTTTTTTTTTTTTTTT [CACACA_negctrl_site1021]”: the “gcPBM binding intensity (ln)” value worked out at 11 ± 0.34. “AATATCAAAATAACATGTACATGTTATATTTTATTT [XGTACX_site5891]”: the “gcPBM binding intensity (ln)” value was found to be 11 ± 0.52. In the case of “AATAACATTATTTTATGTACACATGAAAAATAAAAT [XGTACX_site4657]”, the “gcPBM binding intensity (ln)” value is 11.5 ± 0.92. Turning to “ATTTATTAATCATATACACACATATATTTGTATTTA [CACACA_site1336]”, the “gcPBM binding intensity (ln)” value is 9.88.

In the case of “TTATAGACATATATAGGTACACATATTTTCAATCCC [XGTACX_site8230]”, the “gcPBM binding intensity (ln)” value was found to be 11.3 ± 0.77. For “ACCTCATAATATTTAACACACAAAATTATCTGTATG [CACACA_site5015]”, the “gcPBM binding intensity (ln)” value was found to be 9.98 ± 0.028. Take “TATTTTTTTAAAATAGGTACACAATCAAACATTTAT [XGTACX_site8785]”: the “gcPBM binding intensity (ln)” value came to 11.4 ± 0.97. For “TTTAAATAAAAATGGAGTACTCTAAAAAAAAAAAAA [XGTACX_site1233]”, the “gcPBM binding intensity (ln)” value came out at 11.4 ± 0.88. Take “CGTCCAAAATATCCTTCACACACGAACAGTTTCATT [CACACA_site2729]”: the “gcPBM binding intensity (ln)” value was 10.14 ± 0.078. In the case of “GTGATTTCTATGAATTGTACTTAAATATAGTTATAT [XGTACX_site231]”, the “gcPBM binding intensity (ln)” value turned out to be 11.1 ± 0.68.

Consider “TTTATATAATATTCTACACACCAACAACAAACATAT [CACACA_site4478]”, for which the “gcPBM binding intensity (ln)” value is 10.5 ± 0.4.

For the sequence “ATATATATATATAATACACACATAAATGAATATATA [CACACA_site316]”, the “gcPBM binding intensity (ln)” value came out at 10.1 ± 0.48. In the case of “GCATTGATCAAACATACACACATGGTTAATAAAAAT [CACACA_site2085]” it was 10.3 ± 0.35; in that of “GTAGTACATTCTAGAATACACACCTATATATATATA [CACACA_site522]”, 11.2 ± 0.98; in that of “TGAAATGAAAGAACAGCACACATATATATTATATAT [CACACA_site8613]”, 9.73 ± 0.25. Then “TATATTTTTTAAAAAAGTACAAAGTAATTATTGATT [XGTACX_site2420]”, with 11.3 ± 0.83. In the case of “ATATGAAAAACTTCATGTACTTATTATAAAATATAA [XGTACX_site2725]”, the “gcPBM binding intensity (ln)” value came out at 11.2 ± 1. On to “CTTTTTTTTTTGTATTGTACTTTATTTTTACATCGT [XGTACX_site2918]”, for which the “gcPBM binding intensity (ln)” value was found to be 11.5 ± 0.95.

Take “GATTACCTTTTTTTTTTTTTTTTTTTTTTTTTTTTC [CACACA_negctrl_site147]”: the “gcPBM binding intensity (ln)” value amounted to 9.595 ± 0.092.

Take “ATAAAAAAAAATATATGTACATATATAAATTGATAT [XGTACX_site7409]”: the “gcPBM binding intensity (ln)” value worked out at 11.3 ± 0.79. For “ATTCTAATTTTATGAAACGATTATTTTGAATTCATT [XGTACX_negctrl_site578]”, the “gcPBM binding intensity (ln)” value is 9.73 ± 0.085. For the sequence “ATTTTTAATTTTTTCACACATATATTTAAAATAAAA [CACACA_site4799]”, the “gcPBM binding intensity (ln)” value came to 9.99 ± 0.21. Consider “AAAAAAAAAAAATGTGCACACGCGTACAGACAAAAA [CACACA_site2005]”, for which the “gcPBM binding intensity (ln)” value was 11.8 ± 0.99.

For the sequence “TAAAAAGTACATTATTCATGGCCTATTACATTTTTT [GTGCAC_negctrl_site282]”, the “gcPBM binding intensity (ln)” value was found to be 11.4 ± 0.87. For “ACACAAAAATAGTTTTTTATATTGTTAACCTTATAT [XGTACX_negctrl_site123]”, the “gcPBM binding intensity (ln)” value is 10.05 ± 0.099.

Turning to “ATAATATATATGAAATGTACATAAATTTAATGCGAC [XGTACX_site5394]”, the “gcPBM binding intensity (ln)” value amounted to 11.1 ± 0.54. “ATATTTTACATATTTGCACACATATATTTAAATACA [CACACA_site4628]”: the “gcPBM binding intensity (ln)” value turned out to be 10.2 ± 0.26.

For the sequence “ATTTATGTTATTGTATGTACACAATATAATGTTATT [XGTACX_site5657]”, the “gcPBM binding intensity (ln)” value was 11.4 ± 0.91. As to “ATTCTACACGCACATACACACATATAAATATAAATA [CACACA_site7582]”, the “gcPBM binding intensity (ln)” value was found to be 10.4 ± 0.21. On to “AAAAAAAAATATATATATATATATATATAATAAAAA [CACACA_negctrl_site639]”, for which the “gcPBM binding intensity (ln)” value came out at 9.48 ± 0.27. On to TATGTTTTATATAAGATGCACTTTTGTTATGCTTCA, for which the “gcPBM binding intensity (ln)” value was found to be 9.955 ± 0.092.
